PubChem BioAssay AID760 (NMMLSC, 2007)
In all, about 190,000 compounds went through this assay and about 360 (0.19%) were called active. Inconclusive results, whose numbers are uncertain, are shown with a selection of clear calls.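 The calls were made as follows: active = GTP binding activity at least 20 points away from 100%, either lowered or raised; inconclusive = signal likely due to the compound's own green fluorescence; inactive = the rest.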

Molecular target: Ras-related protein Rab-2A (Canis lupus familiaris) (UniProt P61105)
Test: Rab2 wt fluorescent GTP binding changes, either direction – biochemical, dog, bead-based flow cytometry, multiplex, primary screen (AID 760);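 also: 0% = beads with excess unlabeled GTP and 100% = no-compound control corrected for plate trend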
Conditions: GST-Rab2 wt beads, Bodipy-GTP binding, at 10 µM

Row | SMILES | GTP binding activity
1 | CCCS(=O)(=O)N1CCC(C(=O)N2CCOCC2)CC1 | inconclusive: 99%
2 | CC(=O)c1ccc(NC(=S)NCc2ccc(Cl)cc2Cl)cc1 | inactive: 95%
3 | CCN1/C(=C2/SC(=S)NC2=O)Sc2ccccc21 | inconclusive: 91%
4 | CCOc1ccc(-n2c(C)nc3cc(C(=O)NCc4ccc5c(c4)OCO5)ccc32)cc1 | active: 71%
5 | CC1CCN(C(C)C(=O)Nc2ccccc2-c2ccccc2)CC1 (stereo not given) | inconclusive: 106%
6 | Cc1ccc(COc2ccsc2C(=O)O)cc1 | inactive: 117%
7 | COc1ccc(C2CC(c3cccs3)Nc3nnnn32)cc1 (stereo not given) | inactive: 98%
8 | COCCSc1ccccc1C(=O)Nc1cc(C)on1 | inconclusive: 104%
9 | Cc1ccc2cc3cc(C(=O)N4CC(C)CC(C)C4)oc3nc2c1 (stereo not given) | inconclusive: 102%
10 | COc1ccc(Nc2nc(Nc3ccc(OC)cc3OC)nc(N3CCN(C)CC3)n2)c(OC)c1 | inactive: 101%
11 | O=C(N=Nc1c(O)[nH]c2ccc([N+](=O)[O-])cc12)c1cc(-c2ccccc2Cl)nc2ccccc12 | inactive: 96%
12 | CCN1CCN(C(=O)CN(C)S(=O)(=O)c2ccc3ccccc3c2)CC1 | inconclusive: 96%
13 | CCN(Cc1cnn(C)c1)Cc1nc(C(c2ccccc2)c2ccccc2)no1 | inactive: 98%
14 | COc1ccc(CNC(=O)c2nnn(-c3cccc(C(F)(F)F)c3)c2N)cc1 | inactive: 99%
15 | COCCNC(=O)/C(C#N)=C/c1ccc(OCC(=O)NC2CCCCC2)cc1 | inactive: 101%
16 | COC(=O)CN(c1nc(C)cc(OC)n1)S(=O)(=O)c1ccccc1 | inconclusive: 102%
17 | O=C(CCl)Nc1ccc(Oc2cnc3ccccc3n2)cc1 | inactive: 101%
18 | COc1ccccc1-c1c(C)oc2cc(OCC(=O)OCc3ccccc3)ccc2c1=O | inconclusive: 107%
19 | Cc1ccc(-c2csc3nc(C)n(N)c(=O)c23)cc1 | inactive: 95%
20 | C(=N\Nc1nc(N2CCCC2)nc(N2CCCC2)n1)/c1ccccc1OCc1ccccc1 | inconclusive: 95%
21 | Cc1ccc(S(=O)(=O)N(C)CCCC(=O)NC(C)(C)C)cc1 | inactive: 98%
22 | O=[N+]([O-])c1ccccc1/C=C/C=N/n1c(-c2ccco2)n[nH]c1=S | inactive: 82%
23 | Cc1ccc(OCc2nnc(SCC(=O)c3cccs3)n2-c2ccccc2)cc1C | inconclusive: 102%

Row | SMILES | GTP binding activity
24 | COc1ccccc1NC(=O)C1=C(C)NC(=O)NC1c1cccc(OC)c1OC (stereo not given) | inconclusive: 115%
25 | COC(=O)c1cc(C(=O)NCc2ccccc2)c(=O)[nH]c1C | inactive: 100%
26 | COc1ccc(OC)c(NC2=NC3(CCCCC3)N=C(N)N2)c1 | inconclusive: 84%
27 | Cc1cccc(NC(=O)CN(C)S(=O)(=O)c2cccs2)c1 | inconclusive: 89%
28 | COc1cc(/C=N/NC(=O)CN(Cc2ccccc2)S(=O)(=O)c2ccc3c(c2)OCCO3)ccc1O | active: 78%
29 | Cc1c(N=C2N=C(NC(=O)c3ccc(F)cc3)c3ccccc32)c(=O)n(-c2ccccc2)n1C | inactive: 101%
30 | CCOC(=O)c1sc(NC(=O)CSc2n[nH]c(CC)n2)nc1C | inactive: 97%
31 | Cc1ccc(C)c(N(CC(N)=O)S(C)(=O)=O)c1 | active: 72%
32 | CCn1cc(CNC(=S)Nc2cccc(Cl)c2C)cn1 | inactive: 102%
33 | COc1nc(Nc2ccc(O)cc2)nc(OC(C(F)(F)F)C(F)(F)F)n1 | inconclusive: 158%
34 | Cc1cc(Cl)nc(-c2ccccc2)n1 | inconclusive: 93%
35 | O=C(CCC(=O)N1CCCC1)Nc1nnc(C(F)(F)F)s1 | inconclusive: 106%
36 | O=C(NNc1cccc(Cl)n1)c1c(Cl)cccc1Cl | inconclusive: 111%
37 | CCOc1cc(S(=O)(=O)NCc2ccc3c(c2)OCO3)c(C)cc1C | inconclusive: 94%
38 | COc1cccc(CSc2nc3sc(C)c(C)c3c(=O)n2Cc2ccco2)c1 | inconclusive: 102%
39 | O=C(O)c1cccc(-n2c(-c3cnccn3)n[nH]c2=S)c1 | inactive: 96%
40 | Cc1cccc2sc(NC(=O)C3CCCN(S(=O)(=O)c4cccc5nonc45)C3)nc12 (stereo not given) | inconclusive: 111%
41 | Cc1c(C(=O)N2CCCCC2)sc(NC(=O)C(C)C)c1C#N | inconclusive: 101%
42 | CN1CCN(S(=O)(=O)c2ccc(NC(=S)NC(=O)C(C)(C)C)cc2)CC1 | inactive: 98%
43 | Oc1ccc(/C=N/Nc2nc(N3CCCCCC3)nc(N3CCCCCC3)n2)c(O)c1 | inconclusive: 90%
44 | C/C=C/C(=O)OCC(=O)Nc1cccc(F)c1 | inactive: 97%
45 | COc1cccc(N=c2oc3c(C)ncc(CO)c3cc2C(N)=O)c1 | inconclusive: 88%
